Laboratory results as given in patent US11178870B2 (priority 2017, dated 2021).

Columns and labels:
Magnaporthe grisea = format: in vivo; settings: Table 7, Test A
[1] = system: Colletotrichum orbiculare; settings: 250 ppm sprayed (2.5 ml/pot) before inoculation; assessed 6 to 10 days after inoculation
Phytophthora infestans = format: in vivo; settings: Table 7, Test F

Row | SMILES | control value, Test A (blast on rice) (Magnaporthe grisea) | control value, Test H (anthracnose on cucumber) [1] | control value, Test F (late blight on tomato) (Phytophthora infestans)
1 | CCn1c(-c2c(F)cccc2Cl)c(-n2cc(Cl)cn2)cc(Br)c1=O [Compound 199] | L (L shows the control value of 50% or less) | L (L shows the control value of 50% or less) | L (L shows the control value of 50% or less)
2 | CCOc1cc(F)c(-c2c(-n3cc(Cl)cn3)cc(Cl)c(=O)n2CC)c(F)c1 [Compound 200] | H (H shows the control value more than 50%) | H (H shows the control value more than 50%) | L (L shows the control value of 50% or less)
3 | CCn1c(-c2c(F)cc(OCOC)cc2F)c(-n2cc(Cl)cn2)cc(Cl)c1=O [Compound 203] | H (H shows the control value more than 50%) | H (H shows the control value more than 50%) | L (L shows the control value of 50% or less)
4 | O=c1c(Br)cc(-n2cc(Cl)cn2)c(-c2c(F)cc(F)cc2F)n1CC(F)F [Compound 207] | H (H shows the control value more than 50%) | H (H shows the control value more than 50%) | L (L shows the control value of 50% or less)
5 | CCn1c(-c2ccccc2Cl)c(-n2cnc(Cl)c2Cl)ccc1=O [Compound 208] | H (H shows the control value more than 50%) | H (H shows the control value more than 50%) | L (L shows the control value of 50% or less)
6 | CCn1c(-c2ccccc2Cl)c(-n2cnc(Cl)c2Cl)cc(Cl)c1=O [Compound 209] | H (H shows the control value more than 50%) | H (H shows the control value more than 50%) | L (L shows the control value of 50% or less)
7 | CCn1c(-c2ccccc2Cl)c(-n2cnc(Cl)c2Cl)cc(Br)c1=O [Compound 210] | L (L shows the control value of 50% or less) | H (H shows the control value more than 50%) | L (L shows the control value of 50% or less)
8 | O=c1ccc(-n2cc(Cl)cn2)c(-c2ccc(F)cc2F)n1CC(F)F [Compound 211] | H (H shows the control value more than 50%) | L (L shows the control value of 50% or less) | L (L shows the control value of 50% or less)
9 | O=c1c(Cl)cc(-n2cc(Cl)cn2)c(-c2ccc(F)cc2F)n1CC(F)F [Compound 212] | H (H shows the control value more than 50%) | L (L shows the control value of 50% or less) | L (L shows the control value of 50% or less)
10 | COc1ccc(-c2c(-n3cc(Cl)cn3)cc(Cl)c(=O)n2CC(F)F)c(F)c1 [Compound 213] | H (H shows the control value more than 50%) | H (H shows the control value more than 50%) | L (L shows the control value of 50% or less)
11 | O=c1c(Br)cc(-n2cc(Cl)cn2)c(-c2ccc(F)cc2F)n1CC(F)F [Compound 214] | H (H shows the control value more than 50%) | L (L shows the control value of 50% or less) | L (L shows the control value of 50% or less)
12 | COc1ccc(-c2c(-n3cc(Cl)cn3)cc(Br)c(=O)n2CC(F)F)c(F)c1 [Compound 215] | H (H shows the control value more than 50%) | H (H shows the control value more than 50%) | H (H shows the control value more than 50%)
13 | CCn1c(-c2c(F)cccc2Br)c(-n2cc(Cl)cn2)ccc1=O [Compound 216] | L (L shows the control value of 50% or less) | H (H shows the control value more than 50%) | L (L shows the control value of 50% or less)
14 | CCn1c(-c2ccccc2F)c(-n2cc(Cl)cn2)ccc1=O [Compound 217] | L (L shows the control value of 50% or less) | L (L shows the control value of 50% or less) | L (L shows the control value of 50% or less)
15 | CCn1c(-c2c(F)cccc2Br)c(-n2cc(Cl)cn2)cc(Cl)c1=O [Compound 218] | H (H shows the control value more than 50%) | L (L shows the control value of 50% or less) | L (L shows the control value of 50% or less)
16 | CCn1c(-c2c(F)cccc2Br)c(-n2cc(Cl)cn2)cc(Br)c1=O [Compound 219] | L (L shows the control value of 50% or less) | L (L shows the control value of 50% or less) | L (L shows the control value of 50% or less)

Row | SMILES | control value, Test A (blast on rice) (Magnaporthe grisea) | control value, Test H (anthracnose on cucumber) [1] | control value, Test F (late blight on tomato) (Phytophthora infestans)
17 | CCn1c(-c2ccccc2F)c(-n2cc(Cl)cn2)cc(Cl)c1=O [Compound 220] | H (H shows the control value more than 50%) | H (H shows the control value more than 50%) | L (L shows the control value of 50% or less)
18 | CCn1c(-c2ccccc2F)c(-n2cc(Cl)cn2)cc(Br)c1=O [Compound 221] | L (L shows the control value of 50% or less) | L (L shows the control value of 50% or less) | L (L shows the control value of 50% or less)
19 | COc1cc(F)c(-c2c(-n3cc(Cl)cn3)cc(Br)c(=O)n2CC(F)F)c(F)c1 [Compound 222] | H (H shows the control value more than 50%) | H (H shows the control value more than 50%) | L (L shows the control value of 50% or less)
20 | C#Cc1cc(-n2cc(Cl)cn2)c(-c2c(F)cc(OC)cc2F)n(CC)c1=O [Compound 224] | L (L shows the control value of 50% or less) | H (H shows the control value more than 50%) | L (L shows the control value of 50% or less)
21 | Cc1cnn(-c2ccc(=O)n(CC(F)F)c2-c2ccccc2Cl)c1 [Compound 227] | L (L shows the control value of 50% or less) | L (L shows the control value of 50% or less) | L (L shows the control value of 50% or less)
22 | Cc1cnn(-c2cc(Cl)c(=O)n(CC(F)F)c2-c2ccccc2Cl)c1Cl [Compound 229] | H (H shows the control value more than 50%) | H (H shows the control value more than 50%) | L (L shows the control value of 50% or less)
23 | Cc1cnn(-c2cc(Br)c(=O)n(CC(F)F)c2-c2ccccc2Cl)c1Cl [Compound 230] | H (H shows the control value more than 50%) | H (H shows the control value more than 50%) | L (L shows the control value of 50% or less)
24 | O=c1ccc(-n2cnc(Cl)c2Cl)c(-c2ccccc2Cl)n1CC(F)F [Compound 231] | H (H shows the control value more than 50%) | L (L shows the control value of 50% or less) | L (L shows the control value of 50% or less)
25 | O=c1c(Cl)cc(-n2cnc(Cl)c2Cl)c(-c2ccccc2Cl)n1CC(F)F [Compound 232] | H (H shows the control value more than 50%) | L (L shows the control value of 50% or less) | L (L shows the control value of 50% or less)
26 | O=c1ccc(-n2cc(Cl)cn2)c(-c2ccc(F)cc2Cl)n1CC(F)F [Compound 233] | H (H shows the control value more than 50%) | L (L shows the control value of 50% or less) | L (L shows the control value of 50% or less)
27 | O=c1c(Cl)cc(-n2cc(Cl)cn2)c(-c2ccc(F)cc2Cl)n1CC(F)F [Compound 234] | L (L shows the control value of 50% or less) | L (L shows the control value of 50% or less) | L (L shows the control value of 50% or less)
28 | O=c1c(Br)cc(-n2cc(Cl)cn2)c(-c2ccc(F)cc2Cl)n1CC(F)F [Compound 235] | H (H shows the control value more than 50%) | L (L shows the control value of 50% or less) | L (L shows the control value of 50% or less)
29 | O=c1c(Br)cc(-n2cnc(Cl)c2Cl)c(-c2ccccc2Cl)n1CC(F)F [Compound 236] | H (H shows the control value more than 50%) | H (H shows the control value more than 50%) | L (L shows the control value of 50% or less)
30 | CCn1c(-c2ccccc2C)c(-n2cc(C)cn2)cc(Br)c1=O [Compound 237] | L (L shows the control value of 50% or less) | L (L shows the control value of 50% or less) | L (L shows the control value of 50% or less)
31 | CCn1c(-c2c(F)cc(OC)cc2F)c(-n2cc(Cl)cn2)ccc1=O [Compound 238] | H (H shows the control value more than 50%) | H (H shows the control value more than 50%) | L (L shows the control value of 50% or less)
